From patent US7094873 (University of Texas, dated 2006)

Target: Bovine Hsc70 (Stressgen) (bovine, UniProt P19120)
Experiment: cell-based or functional assay

Sequence of UniProt P19120 (P19120 2-650 limits assumed): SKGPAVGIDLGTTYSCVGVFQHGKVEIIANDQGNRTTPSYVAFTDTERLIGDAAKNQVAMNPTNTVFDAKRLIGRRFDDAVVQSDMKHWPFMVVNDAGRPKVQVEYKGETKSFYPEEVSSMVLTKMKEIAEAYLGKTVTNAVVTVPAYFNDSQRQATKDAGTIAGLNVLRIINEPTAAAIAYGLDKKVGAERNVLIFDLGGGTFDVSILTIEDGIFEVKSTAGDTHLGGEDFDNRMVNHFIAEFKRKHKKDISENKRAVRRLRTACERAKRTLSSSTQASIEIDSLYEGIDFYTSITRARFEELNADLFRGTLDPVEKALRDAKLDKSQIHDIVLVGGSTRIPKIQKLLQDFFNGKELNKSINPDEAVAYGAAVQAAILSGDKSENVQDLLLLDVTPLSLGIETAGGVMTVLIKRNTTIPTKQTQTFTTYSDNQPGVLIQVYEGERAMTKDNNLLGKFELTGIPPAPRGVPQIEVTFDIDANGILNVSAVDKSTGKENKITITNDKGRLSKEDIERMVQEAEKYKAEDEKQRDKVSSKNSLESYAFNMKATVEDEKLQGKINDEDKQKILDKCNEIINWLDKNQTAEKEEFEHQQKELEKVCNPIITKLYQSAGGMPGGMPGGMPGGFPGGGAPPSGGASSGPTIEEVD

B1: Human Hsp40 (Stressgen) (other)
chain: MGKDYYQTLGLARGASDEEIKRAYRRQALRYHPDKNKEPGAEEKFKEIAEAYDVLSDPRKREIFDRYGEEGLKGSGPSGGSGGGANGTSFSYTFHGDPHAMFAEFFGGRNPFDTFFGQRNGEEGMDIDDPFSGFPMGMGGFTNVNFGRSRSAQEPARKKQ[in this place about 150 residues]PERIPQTSRTVLEQVLPI
rate of ATPase activity of Hsc70: 11 fold
